# Assay results reported in ChEMBL document CHEMBL4888484, “Replenishing the malaria drug discovery pipeline: Screening and hit evaluation of the MMV Hit Generation Library 1 (HGL1) against asexual blood stage Plasmodium falciparum ,using a nano luciferase reporter read-out” (2022).
# Screen size: about 150,000 compounds; about 540 (0.36%) showed an effect of 50% or more. The list shows a part of the results.
# Tested on: Plasmodium falciparum
# Experiment: Primary screen in NF54 nanoGlo assay, in single point, at 2uM, 72h; a lower Z score goes with more inhibition
# Type: functional, Erythrocyte
# Details: timepoint 72 hour
SMILES,% Inhibition,Z score
Cc1cc(CN2CCC[C@H](C)C2)c(C)c(CN2CCNC(=O)C23CCCC3)c1,-13%,1.72
Cc1csc2ncnc(NC3CC(C)n4ccnc43)c12 (centres undefined),0%,0.04
Cc1nnnn1Cc1ccc(C(=O)N2CCC(C(=O)N3CCCC3)CC2)cc1,7%,-1.45
C(=C\C1CCCCC1)/c1n[nH]c2ncccc12,-14%,1.8
CCNC(=O)C1=CCN(C(=O)c2ccc(C)cc2C)CC1,3%,-0.5
O=C(Cn1cnc2cc3c(cc21)OCCO3)NCCc1ccccc1,-4%,0.4
O=C(NCCc1n[nH]c(-c2ccc(F)c(F)c2)n1)c1ccc(Cl)cc1,-8%,1.44
CC(NC(=O)CN1C(=O)CC(C)(C(C)C)C1=O)c1ccc(F)cc1 (centres undefined),-7%,0.76
CCC1(CC)CCC(NC(=O)NCCc2cncc(C)n2)CC1,-13%,1.12
O=C1NCCN(Cc2cccc(F)c2F)[C@H]1CC(=O)N1CCCC1,-2%,0.36
COCCN(Cc1ccc(C)o1)C(=O)c1ccc(Cl)cn1,-8%,1.07
O=C(CC1CCCC1)N[C@@H](CN1C(=O)COC1=O)c1ccccc1,-10%,1.88
CCn1nc(C)c2c1c(=O)n(Cc1ccccc1)c(=O)n2CC(=O)Nc1cccc(C(C)=O)c1,-15%,1.49
Cc1ccc(-n2c(-c3ccccc3)nnc2-c2ccco2)cc1,-35%,4.06
Cc1c(NC(=O)CNCc2ccco2)c(=O)n(-c2ccccc2)n1C,-3%,0.43
CC(C)c1cnc(-c2ccc(NC(=O)CCc3cscn3)cc2)o1,-1%,0.08
O=C(CN1CCCS1(=O)=O)NCC1(C2CC2)CC1,-6%,0.88
Cc1ccc(-n2ncnc2[C@@H]2CCCN2C(N)=O)cc1C,10%,-1.98
CC(C)NC(=O)Cn1ccnc1CCN1C(=O)c2ccccc2C1=O,33%,-4.76
CCOC(=O)c1nn(-c2cccnc2)c2ccccc2c1=O,29%,-3.97
COc1ccc(C(=O)Cn2cn[n+](CC(=O)c3ccc(OC)cc3)c2)cc1,-10%,1.19
CCOC(=O)c1cc(NC(=O)[C@@H](NC(=O)C(C)(C)C)C(C)C)[nH]n1,-7%,1.1

SMILES,% Inhibition,Z score
c1ccc(N2CCN(Cc3ccncc3CN3CCN(c4ccccn4)CC3)CC2)nc1,-3%,0.59
O=C(C1CCC1)N1CCN(Cc2ccccc2)c2ncccc21,-9%,1.1
Cc1ccc(C(=O)N2CC[C@H](n3ccnn3)C2)s1,-3%,0.39
Cc1nccc(-c2ccccc2)c1C(=O)NCc1n[nH]c(=O)[nH]1,-10%,1.07
Cc1ccc(CN(C)C(=O)NC2CCOC3(CCS(=O)(=O)C3)C2)s1 (centres undefined),-10%,1.32
CC(C)(C)NCCOCCOc1ccc(F)cc1,-2%,0.38
COCCNC1=Nc2ncccc2NC12CCN(C(=O)Cc1c(F)cccc1Cl)CC2,-4%,0.62
Cc1nonc1OCCn1cc([C@H]2CCOC2)nn1,2%,-0.34
COc1ccc(C(=O)O)nc1-c1ccnc2[nH]ccc12,10%,-1.37
C[C@@H]1CN(C(=O)NCCCNc2cccnc2)C[C@H](C)O1,-3%,0.28
Cc1cccc(-c2nc(N)nc3c2CN(C(=O)c2cccc(N)c2)[C@H]3C)c1,1%,-0.07
Cc1nc(CN(C)C[C@H]2CCCCN2C)n(C)c1C,4%,-0.43
O=C(O)COc1ccc(Cl)cc1CN1CCc2[nH]nc(C(=O)O)c2C1,-28%,2.79
OCCN(CCO)c1ccc(C(c2ccccc2Cl)c2ccc(N(CCO)CCO)cc2Cl)c(Cl)c1,-9%,1.44
COCCC1(c2noc(C3CCOCC3)n2)CCN(S(=O)(=O)N(C)C)CC1,-16%,2.05
CCNC(=O)C[C@H]1CCCN1Cc1nc2ccccc2c(=O)[nH]1,0%,-0.09
CCCCNC(=O)c1ccc(CN2C(=O)CCn3nc(-c4ccc(OC)cc4)cc32)cc1,6%,-0.73
CCc1cc(CC)nc(NCc2ccc[nH]c2=O)n1,-5%,0.77
CCCOc1ccc(CN(C)C)cc1C(=O)OC,11%,-1.47
O=C(CC[C@H]1CCCN(CCCn2cccn2)C1)N1CCN(c2ccccn2)CC1,10%,-1.23
O=S(=O)(c1ccccc1)N1CCC(F)(c2nc(-c3ccncc3)no2)CC1,-11%,1.54
Cc1ccccc1C(=O)Nc1c(C#N)c(-c2ccccc2)c(-c2ccccc2)n1Cc1ccccc1,-5%,0.79

SMILES,% Inhibition,Z score
COc1cccc(C(=O)N(CC(=O)O)CC(C)(C)C)c1C,2%,-0.26
CC(=O)CCc1c(-c2ccc(C)cc2)c2ccccc2n1S(=O)(=O)c1ccc(C)cc1,-6%,0.68
Cc1nc(C2CCN(C(=O)[C@H]3C[C@@H]3CC(C)C)C2)n[nH]1 (some centres undefined),-4%,0.54
CN(C)C(=O)c1ccc2c(c1)N(CC(=O)N1CCN(c3ccccc3)CC1)C(=O)CO2,-8%,1.49
O=C(NCc1ccco1)c1nn[nH]c1Nc1cccc(F)c1,-19%,3.11
CC(C#N)N1CCCC(NC(=O)OC(C)(C)C)C1 (centres undefined),-13%,1.45
Cc1cc(CCNC(=O)c2cccs2)nn1C,-8%,1.61
COCCc1noc(-c2nc(-c3ccc(C)cc3)no2)n1,-10%,1.57
O[C@@H](CNc1ccncc1Br)CN1CCOCC1,-4%,0.68
O=C(c1ccc(Br)o1)N1CCCCCCC1,1%,-0.16
CCC(CC)C(=O)N1CCC2(CC1)Nc1ccc(C)c(C)c1-n1cccc12,-13%,1.76
CCOc1ccccc1NC(=O)C(=O)N1CCCN(C(C)C)CC1,-8%,0.79
O=C(Nc1ncc(Cc2ccccc2)s1)C1CC2CCC1C2 (centres undefined),-6%,0.86
CCc1cc(N2CCN(C(=O)c3ccc(C)cc3)CC2)nc2nnc(C)n12,-10%,1.36
C=CCNC(=O)Nc1ccc(N2CCCN(Cc3cc(OC)cc(OC)c3)C2=O)cc1,-2%,0.21
CCc1ccc(NC(=O)Cn2c(=O)n(CC)c(=O)c3sc(N4CCCC4)nc32)cc1,-21%,1.84
Cc1cc(NC(=O)Cn2cc(-c3ncccc3C(=O)N(C)C)cn2)n(C)n1,-7%,1.12
Cc1noc(C)c1CN1C(=O)[C@@H]2CC[C@H]1CN(C(=O)CCn1cncn1)C2,8%,-1.27
CC(C)C(=O)N1CCN(c2ccc(Br)cc2)C(=O)[C@@H]1C,-12%,1.14
CC(=O)NCc1ccc(Br)cc1Cl,1%,-0.11
Cc1nc(C)n(C2CN(C(=O)c3cnc4sc(C)cn4c3=O)C2)n1,-12%,1.61
CC(C)C(C)(C)CNC(=O)NC1CCCC1CCO (centres undefined),-11%,1.36

SMILES,% Inhibition,Z score
CCN(CC)c1nc2cc(C(=O)NCc3ccccc3)ccc2c(=O)n1Cc1ccccc1,1%,-0.11
O=C(COc1ccc(-c2ccccc2)cc1Cl)N1CCOCC1,13%,-1.65
O=C(N[C@H]1CCOC[C@@H]1Oc1cccc(F)c1)c1ccncc1Cl,-9%,1.12
O=C(C[C@H]1COCCN1Cc1cn2ccccc2n1)c1ccco1,-7%,1.25
Cc1ccc(-n2cccc2CC(=O)NCCCN2CCCCC2)cc1,-6%,0.88
O=C(c1ccc2nncn2c1)N1CC(F)C1,13%,-2.32
CN(Cc1noc(C2CC2)n1)OCc1ccccc1,-9%,1.28
COc1ccc(C2=Nc3nc4ccccc4n3/C2=N\O)cc1,-13%,1.54
COc1ccc(OC)c(NC(=O)[C@]2(C)CCCCC(=O)N2)c1,-17%,1.94
Cc1ccnc(-c2cnn([C@@H]3CCCCO3)n2)c1,-17%,2.29
CC[C@]1(C(=O)O)CCCN(Cc2cnc(-c3cccc(C)c3)nc2)C1,-17%,2.24
O=C(c1cccs1)N1CCN(Cc2ccc(-c3cccc(F)c3)s2)CC1,5%,-0.43
CC[C@@H](CN(C)C)Nc1cc(C)nc2ccnn12,3%,-0.65
Cn1cccc1-c1cc(-c2ncnn2CC(C)(C)O)[nH]n1,-18%,1.7
Cn1cccc1[C@@H](O)CCNC(=O)Nc1cccs1,-11%,1.64
CCS(=O)(=O)Nc1ccc(C)n(CC(=O)NCc2c(C)cc(C)cc2C)c1=O,-14%,1.81
c1ccc(N2CCN(CN3CCCn4c(-c5cnccn5)nnc43)CC2)cc1,1%,-0.23
CCn1cc(CNc2ccccc2CC(N)=O)cn1,-16%,2.14
O=C(NC1CCCCCCC1)c1c(Cl)cccc1Cl,3%,-0.4
O=C1CN(Cc2cnc(NCc3ccccc3)nc2)CCN1,3%,-0.47
O=C(Nc1ccncc1)c1cnc2ccccc2n1,-9%,1.04
